The whole screen tested about 340,000 compounds, of which about 12,000 (3.5%) were called active. Inconclusive results, whose numbers are uncertain, are shown with a selection of clear calls. Calls follow the shape of the dose curve; as a rule, active = well fitted inhibition curve with a large enough effect; inconclusive = small, poorly fitted or top-dose-only effect, or another doubt; inactive = no such curve, though single readings can be large or run the other way. Potencies of inconclusive entries are left out as doubtful fits.
assay: qHTS Assay for Inhibitors of Hepatitis C Virus (HCV); conditions: Huh7.5.1 HCVcc-Cre (HCVcc is cell-culture hepatitis C virus) infection, luciferase reporter, 44 h; activity change, negative = inhibition: at 41.8 µM (top of the series) unless noted
Procedure, shortened: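 Luciferase read-out (15 sec integration) after a 15 min room-temperature substrate step quantifies HCVcc-Cre infection. Cells, 1,000 per well, had compound added 4 h post-plating, then virus at ~0.5 moi, and were cultured 44 h.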
% is scaled to controls: 0 for no effect and ±100 for the full control effect; potency is read from the fitted curve at half-maximal effect; tags tell the direction and shape of the fitted curve.

| SMILES | Potency | activity change, negative = inhibition |
| --- | --- | --- |
| O=C(Nc1ccc(S(=O)(=O)Nc2ccccc2)cc1)C1CC1 | inconclusive [inhibitor, single point] | – |
| S=C1NC(c2ccccc2)=NCN1c1ccccc1 | inconclusive [inhibitor, single point] | – |
| COc1ccccc1NC(=O)c1ccc(Br)o1 | inconclusive [inhibitor, single point] | – |
| CCOC(=O)C1CCCN(C(=O)c2ccc(Cl)c(S(=O)(=O)N3CCc4ccccc43)c2)C1 (stereo unspecified) | inconclusive [inhibitor, single point] | – |
| COc1cccc(CN2CCN(S(=O)(=O)c3ccc(NC(C)=O)cc3)CC2)c1OC | inconclusive [inhibitor, single point] | – |
| CCCCNC(=O)C1CCCN1C(=O)NC1CCCCC1 (stereo unspecified) | – | inactive: 9.38% |
| O=C(Nc1ccccc1N1CCOCC1)c1cccc(Oc2ccccc2)c1 | inconclusive [inhibitor, partial curve] | – |
| Cc1ccc(NS(=O)(=O)c2cc(NC(=O)c3ccc4c(c3)NC(=O)CS4)ccc2Cl)c(C)c1 | active: 10 µM | – |
| O=C(CSc1nnc(-c2ccccc2)n1Cc1ccccc1)NNC(=O)c1ccccc1O | inconclusive [inhibitor, single point] | – |
| CCCCC(=O)Nc1ccc2c(c1)oc1ccccc12 | inconclusive [inhibitor, partial curve] | – |
| CC(NC(=O)OCc1ccccc1)C(=O)OCN1C(=O)c2ccccc2C1=O (stereo unspecified) | – | inactive: -6.2% |
| N=C1C(c2nc3ccccc3s2)=C(O)CN1NC(=O)c1ccccc1[N+](=O)[O-] | – | inactive: 1.41% |
| CCOc1ccc2nc(N(CCCN(C)C)C(=O)c3ccc4c(c3)CCCC4)sc2c1 | inconclusive [inhibitor, partial curve, poor fit] | – |
| O=C(OCc1ccc(Cl)c(Cl)c1)c1cccnc1Cl | – | inactive: 1.73% |
| O=C(NCC1CCCO1)c1cccc(NC(=O)c2ccc(Br)cc2)c1 (stereo unspecified) | inconclusive [inhibitor, single point] | – |
| CSc1nc2c(c(=O)[nH]c(=O)n2C)n1Cc1ccccc1 | inconclusive [inhibitor, single point] | – |
| COc1ccccc1OCC(=O)Nc1cc(S(=O)(=O)N2CCOCC2)ccc1N1CCCCC1 | active: 12.6 µM | – |
| COc1cc2c(cc1NC(=O)CSc1nccn1C)oc1ccccc12 | active: 2.82 µM | – |
| CCc1ccc(C(=O)N/N=C/c2ccncc2)s1 | active: 12.6 µM | – |
| CC[C@H](C)[C@H](NC(=O)c1ccc(Cl)cc1)C(=O)OCC(=O)c1c(N)n(C)c(=O)n(C)c1=O | inconclusive [inhibitor, single point] | – |
| c1ccc(-c2nnc3sc(CN4CCc5ccccc54)cn23)cc1 | inconclusive [inhibitor, partial curve] | – |
| Cc1ccccc1NC(=O)Nc1ccc2c(c1)OCO2 | – | inactive: -4.51% |
| O=C(NCCc1ccccc1)c1ccc2nc(-c3ccco3)c(-c3ccco3)nc2c1 | active: 11.2 µM | – |
| COc1ccccc1N1CCN(Cc2ccccc2Cl)CC1 | inconclusive [inhibitor, single point] | – |

| SMILES | Potency | activity change, negative = inhibition |
| --- | --- | --- |
| O=C(Nc1ccc(Br)c(Cl)c1)C1CC1 | inconclusive [inhibitor, partial curve] | – |
| Cc1ccc(Cn2ncc3c(N4CCN(CCc5ccccc5)CC4)ncnc32)cc1 | active: 5.01 µM | – |
| O=C(N/N=C/c1cc(O)ccc1Br)c1cccnc1 | inconclusive [inhibitor, single point] | – |
| CSc1nc(N)nc(SCC(=O)c2ccccc2)c1C#N | inconclusive [inhibitor, single point] | – |
| CC1CCN(C(=O)CSc2nnc(-c3ccco3)o2)CC1 | – | inactive: 12.2% |
| CN=C(Nc1ccc(Cl)cc1)c1ccc(C(F)(F)F)cc1 | – | inactive: 20.3% |
| Cc1ccc(S(=O)(=O)N2CCN(C(=O)c3ccc(COc4ccccc4)o3)CC2)cc1 | inconclusive [inhibitor, single point] | – |
| CN(C(=O)c1cccc(NC(=O)Cc2ccc(NC(=O)C3CCCN(C(=O)C4CCCC4)C3)cc2)c1)C1CCCC1 (stereo unspecified) | active: 10 µM | – |
| CCOc1ccc(NC(=O)CN(C)C(=O)c2cccnc2Sc2ccc(C)cc2C)cc1OCC | inconclusive [inhibitor, single point] | – |
| Cc1ccc(Cn2ncc3c(N4CCN(C)CC4)ncnc32)cc1 | inconclusive [inhibitor, single point] | – |
| O=C(CSC(=S)N1CCOCC1)Nc1nc(=O)c2ccccc2s1 | – | inactive: 11% |
| CC(C)(C)NC(=O)CN(c1cccc([N+](=O)[O-])c1)S(=O)(=O)c1ccccc1 | inconclusive [inhibitor, single point] | – |
| CCOc1ccc(OCC)c(NC(=O)CSc2nc3c(c(=O)n(C)c(=O)n3C)n2CC)c1 | inconclusive [inhibitor, single point] | – |
| O=C(Cc1ccc(Cl)cc1Cl)Nc1ccncc1 | active: 8.91 µM | – |
| C(=C\n1nnc2ccccc21)/c1ccccn1 | – | inactive: 7.44% |
| O=C(NNC(=S)NC(=O)c1ccco1)c1ccc(NC(=O)c2ccccc2)cc1 | inconclusive [inhibitor, partial curve] | – |
| COc1ccc(NC(=O)C(C)N2C(=O)c3ccccc3C2=O)c(OC)c1 (stereo unspecified) | – | inactive: 13.6% |
| O=C(CCCCCNC(=O)c1ccccc1Cl)N/N=C/c1ccco1 | – | inactive: 4.13% |
| CC(=O)N1CCCc2ccc(NS(=O)(=O)c3ccc(C)c(C)c3)cc21 | inconclusive [inhibitor, single point] | – |
| CC(=O)c1sc(NC(=O)c2ccc(C)cc2)nc1C | inconclusive [inhibitor, single point] | – |
| O=C(NC1(C(=O)NC2CCCC2)CCCCC1)c1ccc2c(c1)OCO2 | – | inactive: 6.6% |
| CSc1ccccc1NC(=S)N/N=C/c1cccn1Cc1ccc(F)cc1 | inconclusive [inhibitor, single point] | – |
| CC(C)CCn1c2ccccc2c2cc(CC(N)=O)ccc21 | inconclusive [inhibitor, full curve] | – |
| CC[C@@H](C(=O)[C@@H](C)[C@@H](O)[C@H](C)CCc1ccc(C)c(O)c1C(=O)O)[C@H]1O[C@](CC)([C@H]2CC[C@](O)(CC)[C@H](C)O2)C[C@@H]1C | active: 1.78 µM | – |

| SMILES | Potency | activity change, negative = inhibition |
| --- | --- | --- |
| COc1cccc(C=NNC(=S)NN=Cc2cccc(OC)c2OC)c1OC | inconclusive [inhibitor, single point] | – |
| C(=N\c1nc2ccccc2n1Cc1ccccc1)/c1cccs1 | inconclusive [inhibitor, single point] | – |
| CCN(CC(=O)Nc1ccc(Br)cc1)CC(=O)Nc1cc(C)on1 | inconclusive [inhibitor, single point] | – |
| O=C(N/N=C/c1cc(Cl)ccc1O)c1ccccc1Br | inconclusive [inhibitor, single point] | – |
| CCc1nc(SCC(=O)c2ccccc2)c2c(=O)n(C)c(=O)n(C)c2n1 | active: 12.6 µM | – |
| CC1(C)Oc2ccc3ccc(=O)oc3c2/C(=C/Nc2ccccn2)C1=O | inconclusive [inhibitor, partial curve] | – |
| COc1ccc(Cl)cc1NC(=O)CN(C)C(=O)c1ccc2c(c1)OCCO2 | inconclusive [inhibitor, single point] | – |
| Cn1nc(C(=O)N2CCN(c3cccc(Cl)c3)CC2)c2c1-c1ccccc1S(=O)(=O)C2 | inconclusive [inhibitor, single point] | – |
| CCOC(=O)/C=c1\s/c(=C\c2ccc3cc(OC)ccc3c2)c(=O)n1CC(=O)NCc1ccc2c(c1)OCO2 | – | inactive: -28.9% |
| COC(=O)[C@]1(C)N[C@H](CN(C)S(=O)(=O)c2ccc(-c3ccccc3)cc2)[C@@H]2C(=O)N(C)C(=O)[C@@H]21 | inconclusive [inhibitor, partial curve] | – |
| C[C@]12CCC(=O)C=C1CC[C@@H]1C2[C@H](O)C[C@]2(C)C(=O)CCC12 (stereo partly specified) | – | inactive: 15.1% |
| Cc1cccc(-c2ocnc2C(=O)Nc2ccccc2C(=O)N2CCCC2)c1 | inconclusive [inhibitor, partial curve, poor fit] | – |
| CCc1sc(C(=O)NNC(=O)c2cncc(Br)c2)cc1C | – | inactive: -1% |
| Cc1cc(C)c(C(=O)/C=C/c2ccc(C(C)C)cc2)c(=O)[nH]1 | – | inactive: -9.72% |
| O=c1cc(-c2ccc(F)cc2)[nH][nH]1 | – | inactive: 18.1% |
| Cc1ccnc(NC(=O)c2ccc(Cl)c(S(=O)(=O)N3CCCCC3)c2)c1 | active: 12.6 µM | – |
| CN(c1ccccc1)S(=O)(=O)c1cccc(NC(=O)c2ccc(=O)[nH]n2)c1 | inconclusive [inhibitor, single point] | – |
| C=CCSc1nnc(CNC(=O)c2ccc(Cl)cc2)n1CC | – | inactive: -14% |
| Cc1ccc2oc(-c3ccccc3)c(C(=O)O)c(=O)c2c1 | – | inactive: -24% |
| Cc1ccc(NC(=O)c2sc3ncn(CC(=O)N4CCN(c5ccccn5)CC4)c(=O)c3c2C)cc1F | inconclusive [inhibitor, partial curve, poor fit] | – |
| CC(C)(C)OC(=O)NCCCC[C@@H](C(=O)NCCCCCCCCCCC(=O)N1CCN(C(=O)OC(C)(C)C)CC1)n1cc(CCO)nn1 | inconclusive [inhibitor, single point] | – |
| CCc1ccc2c(c1)C(=O)C[C@]1(CCC[C@H](C)C1)O2 | inconclusive [inhibitor, single point] | – |
| Cc1ccc(NC(=O)C2C3C=CC4(O3)C2C(=O)N(CCCN2CCOCC2)C4C(=O)NC2CCCCC2)cc1Cl (stereo unspecified) | inconclusive [inhibitor, single point] | – |

Reference: PubChem BioAssay AID651820 (National Center for Advancing Translational Sciences (NCATS), 2012)
